Laboratory results as given in the supplement of paper PMC10126150.
Values marked as one replicate rest on one cluster of the flow cell; about a third of the high ones do not repeat.

Tested on: ATP
Assay: switch fluorescence ratio, 500 uM ATP over buffer (Cy3 cluster intensity, sum of 5 cycles each) (fold (ratio)); higher = stronger signal-on switching upon ATP binding; sequences stand for … in TCGTCGGCAGCGTCAGATGTGTATAAGAGACAGTTTTTTTTTTTTTTTTTTTTTTTTT…TC
Details: aptamer strand: ATP DNA aptamer (quencher-CACCTGGGGGAGTATTGCGGAGGAAGG + anchor), 100 nM annealed; ATP concentration: 500 uM; one replicate
Procedure, shortened: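 Values give the fluorescence ratio for each switch-domain sequence, averaged from per-cluster ratios of summed target-cycle to summed buffer-cycle Cy3 intensity. The Cy3-labelled switching-strand clusters sat on a modified Illumina MiSeq flow-cell, were annealed to 100 nM quencher-labelled ATP aptamer, and were imaged in selection buffer, then after 15 min with 500 uM ATP at 22 °C. Five cycles ran with NaOH stripping and re-annealing between them, and clusters outside 100-1000 RFU were excluded.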
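Note: ATP exposure 15 min at 22 °C before imaging.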

Row | Sequence | switch fluorescence ratio
1 | GTTTTGTTCG | 0.979
2 | ATAAAGATT | 0.96
3 | GGCTCTACTA | 1.2
4 | CGTTGGCCTA | 0.989
5 | GGGTCAACTG | 1.07
6 | ATATGCCCGA | 1
7 | TGATGCTAAG | 1.01
8 | TATTACGAGA | 0.987
9 | CGGCTCAATC | 1.99
10 | TCGAGGGAAA | 1.01
11 | TGGAGTAAAC | 1.22
12 | ATCCTAGGTC | 1.04
13 | CAGGTTGATT | 0.994
14 | GGAGGGTGT | 1.09
15 | CGTCAGAGGT | 1.02
16 | ATGACCCTGC | 1.03
17 | GTGTATCCGG | 1.01
18 | GATCGGGGAT | 1
19 | TGGCCAAGG | 0.962
20 | AGTGTTCATT | 0.928
21 | GGAGGTTGCA | 0.99
22 | ACTCGATAAG | 1.03
23 | CTGCTAAAAT | 0.987

Row | Sequence | switch fluorescence ratio
24 | GGTGCCTAGG | 1.03
25 | CCCCTCGTTA | 1.06
26 | ATGTGGGTTC | 1.04
27 | AGAACTCAGA | 1.03
28 | AGACTGAGTG | 1.02
29 | TCAAATTTAT | 1.02
30 | GGGGCTTTAC | 1.92
31 | AATCTCCTTA | 1.01
32 | TCGTTACTAG | 1.01
33 | AACAATACTG | 1.26
34 | AGGGTTAAGC | 1.01
35 | TATCGATTAG | 0.996
36 | GACCGAAGGG | 1.11
37 | TCTGAGAAGT | 1.01
38 | TTCAGCCAAA | 0.993
39 | AAACTAGGCC | 1.01
40 | TGAATGAGCG | 0.949
41 | CATGAGATGG | 0.97
42 | TCGATAGGAA | 1
43 | TAGGCCACCG | 1.04
44 | AAATAGGGG | 0.985
45 | ACTTATCAGC | 1.06
46 | TAAACGTCAG | 1.03

Row | Sequence | switch fluorescence ratio
47 | CGTGCAAGAG | 3.14
48 | TTGTCCAGGC | 1
49 | AACTTGCCGG | 0.985
50 | GAGGTACAAT | 1.01
51 | GGCCATGGCG | 1.01
52 | AGCCAGTTTA | 0.992
53 | GAATTAAGCA | 1.03
54 | GGTTTAATG | 0.991
55 | GCAGAGAGAG | 0.983
56 | GAGGCAGAAG | 1.09
57 | TGCCTGTTAC | 1.06
58 | GCAGGAGAGG | 1.14
59 | GGCCGATTTG | 1.01
60 | GCCGGAGGAA | 1.34
61 | GGAGCCGAGG | 0.966
62 | TTCACTAGTT | 0.973
63 | CACCGTCCTC | 1.83
64 | CAATTCAGAA | 0.974
65 | CGCGATACAA | 4.72
66 | CATCTACTTT | 1
67 | AAATTGTAGA | 1
68 | CTGTATGTT | 0.954
69 | CATCTGGACG | 0.977

Row | Sequence | switch fluorescence ratio
70 | AGTAAGCCGT | 0.861
71 | TTGTTCGAAT | 0.987
72 | CTCCTGGGGG | 1.15
73 | CTGGTGATTA | 1.01
74 | ACTCGTTCAG | 1
75 | ATAATCCGAC | 1.28
76 | GAGTAGGGTC | 1.05
77 | ATTAGCTTGC | 0.96
78 | ACTGTATCTT | 1.12
79 | CGTCGATTAC | 2.39
80 | CGGCCCTCCA | 1.09
81 | GTCCTTCTAG | 1.01
82 | ACAGCATCGA | 1.01
83 | TTCTAGTCGA | 0.965
84 | TACTCTCGGA | 0.955
85 | TTAGGTCGGA | 1.01
86 | AACTCGCAGA | 1.05
87 | CGACTCTTCT | 1
88 | GGCTGAATTT | 0.985
89 | GAGGCTCCTG | 1.02
90 | TTCCGTGAAC | 2.03
91 | GTTCCGTATA | 1.28
92 | AGTAGGCGAA | 0.995

Row | Sequence | switch fluorescence ratio
93 | TACTCGTGAT | 1.03
94 | AAAACTCCTG | 1.05
95 | CTTCAATTAC | 1.69
96 | TTTGGGAGTC | 0.971
97 | GCCGTACTTT | 1.06
98 | GATTTCTTTG | 0.972
99 | CGGTCATATG | 0.989
100 | TGTCCGATGT | 1.03
101 | CTGAGGCGCA | 0.973
102 | GTTCCGTCCG | 1.05
103 | ATTTCCGGTT | 0.983
104 | TTGCTACGT | 1.04
105 | ATTGTGAATT | 0.979
106 | CGGCCAAATG | 1.04
107 | GGGAGGCAAC | 1
108 | AGGCGCCATC | 1.01
109 | ACGTTTACAC | 1.56
110 | TGCCGATGAG | 1.04
111 | TCCATGTCCG | 0.948
112 | ACAGAGTACG | 1.07
113 | TTCCTGGGTG | 2.03
114 | CCCAGTTATT | 1.02
115 | AGGCGGAATA | 1.1

Row | Sequence | switch fluorescence ratio
116 | GGAGGGCGGC | 1.14
117 | CAGAGGTGTT | 1.1
118 | TGAGAAAGAC | 1.1
119 | GCAAAATCCC | 1.02
120 | GCGAGAGCCC | 1.01
121 | AATACCAGCT | 1.02
122 | TTACGCTTAA | 1.11
123 | CGCGTTGAGA | 1.04
124 | GTAAGGGTCT | 1.29
125 | GAACACACTT | 1.28
126 | GGAGATACTT | 1.06
127 | TAGATTTGAC | 1.02
128 | TAGACGGGG | 1.07
129 | GAGTACGGAT | 1.01
130 | GGGAGCAGCG | 1.01
131 | CTATGCAACG | 1.01
132 | ACAAACGTTA | 1.25
133 | TACTGTTCTT | 1
134 | GACAACTA | 1.04
135 | GGCGGGCCAT | 1.09
136 | CGACGCCCGA | 1.95
137 | GCCCTGCTTG | 0.975
138 | AAGGAATACG | 1.06

Row | Sequence | switch fluorescence ratio
139 | AGGAGTCTGC | 0.994
140 | GCTAACACGC | 1.02
141 | CGCTGCTAGC | 1.15
142 | CGAAACCGTA | 1.02
143 | TAATGTCAAC | 0.986
144 | ATTTATTAAT | 0.979
145 | TGCCGCCGGC | 1
146 | CTTAGTGGAC | 1
147 | GCCCTCAGTA | 1.05
148 | CCTATTCCTT | 1.04
149 | CGCGGGGTTA | 1.06
150 | GGAGGTAGCG | 0.984
151 | TTATCAGAAC | 1.01
152 | CGACGGCATT | 2.59
153 | AGTTGATAAA | 1
154 | TGTATTGTC | 1.02
155 | TGATGACTTT | 1.18
156 | GTGAAATACC | 1.12
157 | CCCGAAGGCT | 0.989
